Results on 172 sequences are retold here after paper PMC10668032.

The list shows a part of the results. At the low end of the ranking the order means little.

In the experiment the target is SIX1-Q177R homeodomain (UniProt Q15475). The experiment in a line: universal protein binding microarray. Particulars: Universal all-10-mer PBM (8x60K, AMADID 030236), 300 nM GST-tagged protein, Alexa Fluor 488 anti-GST; buffer, salt, pH and temperature not stated; high values mean tight binding; most listed sequences are background and not binding sites; double strand, one strand shown.
Regarding GCACAGCC, the binding signal was -0.0402 E-score. Take CGACAACC: the binding signal came to 0.0156 E-score.

As for CGGCTACG, the binding signal worked out at 0.164 E-score. In the case of GACCCGAA it was -0.0852 E-score. Take CTCAATTC: the binding signal is -0.152 E-score. With TCAATCCA, the binding signal is 0.028 E-score. In the case of CTTTGTGA it was 0.00549 E-score. With ATCTTCAA, the binding signal was -0.0367 E-score. Consider ATGAAACA, for which the binding signal is 0.0085 E-score. On to ACTATTCT, for which the binding signal was found to be 0.0559 E-score.

Turning to CTAATAGA, the binding signal worked out at 0.0326 E-score. CGATGTAC: the binding signal stood at 0.254 E-score. With AAGCTGAA the figure was -0.229 E-score. With AGTAACCA the figure was -0.0886 E-score. As for GAGCGCTC, the binding signal is -0.36 E-score.

Turning to ATGTAGTA, the binding signal is -0.0878 E-score. On to AGTCTGTC, for which the binding signal is -0.298 E-score.

In the case of CTACGCAA, the binding signal was -0.133 E-score.

On to ACCAGGTC, for which the binding signal is -0.0954 E-score.

As to AGGGCCAA, the binding signal was -0.143 E-score. With CTCTAAGA the figure was -0.00164 E-score; with CCTTTGCC, 0.0262 E-score. Regarding CAAGAGTA, the binding signal came out at 0.17 E-score. In the case of TAGGTTAA it was 0.0604 E-score.

As to CAAACTCA, the binding signal stood at 0.0247 E-score.

In the case of ATCCGTCG, the binding signal stood at 0.073 E-score. With TCGGTCCA the figure was -0.23 E-score. In the case of ACCGTCAA it was -0.119 E-score; in that of TGCGGACA, -0.0429 E-score; in that of CCCATCCG, 0.198 E-score.

CGGACAAA: the binding signal is -0.0621 E-score. In the case of CCGATAAC it was 0.106 E-score; in that of CGAATGTC, -0.0209 E-score; in that of GCGTGGAA, -0.19 E-score. In the case of CGATGAAC it was -0.0244 E-score; in that of GTGAAGGA, -0.0293 E-score.

As for ACCTTAGT, the binding signal is -0.0401 E-score. Consider AAAGAGTA, for which the binding signal was -0.0397 E-score. TACCCAGA: the binding signal worked out at 0.144 E-score. In the case of ACCAACCT it was -0.0408 E-score. As to CAAAGAAC, the binding signal is -0.0342 E-score. In the case of CTTACTAA it was -0.103 E-score. In the case of GAATCACA it was 0.12 E-score; in that of CCAATTAC, 0.126 E-score; in that of TCGACTAA, 0.0692 E-score.

Take AGTTCGTG: the binding signal amounted to 0.147 E-score.

Take AAACTAGA: the binding signal amounted to 0.163 E-score.

As to AGACAGAT, the binding signal is -0.271 E-score. With AGAGGCGC the figure was -0.123 E-score; with AAAGTGGT, 0.00153 E-score; with AAGAAATG, -0.16 E-score. Turning to ACGTAGGA, the binding signal was -0.129 E-score. With GGCCGTCA the figure was -0.323 E-score; with AACTGGAT, -0.193 E-score; with GTTTAGGA, -0.0495 E-score. With GAACATTC, the binding signal is -0.322 E-score. In the case of CGTGTGTA it was 0.296 E-score. Consider AGCGCTTA, for which the binding signal is 0.0112 E-score. Consider AGCAGTTG, for which the binding signal was -0.203 E-score. With CACTCCGG the figure was 0.344 E-score. With GAGTGATA the figure was 0.0935 E-score; with AACCCTTG, 0.0963 E-score; with CCCTCCGC, 0.149 E-score. In the case of CTACTTTC it was -0.303 E-score; in that of CCGGGGCA, 0.0344 E-score; in that of GGATCACA, 0.168 E-score. Turning to CACCGATC, the binding signal amounted to 0.26 E-score.

On to CAGGGAGC, for which the binding signal was -0.0688 E-score. In the case of TAGTACCA it was -0.0137 E-score. In the case of CTCGTGGA it was -0.0361 E-score; in that of GGAAGAAC, 0.091 E-score. AAGTTTGA: the binding signal is -0.188 E-score.

CCAGTAGC: the binding signal is -0.0582 E-score. In the case of ATAAGGTA it was 0.12 E-score.

In the case of AATGAACG, the binding signal came to 0.0143 E-score. Regarding AAATGCCG, the binding signal was -0.0898 E-score. Consider CAGATCCC, for which the binding signal was determined as 0.186 E-score. Consider CCATAACG, for which the binding signal is -0.0929 E-score. With CACGACCG the figure was 0.225 E-score. In the case of CTGGTCGC, the binding signal was -0.0976 E-score. With CAGGCTAA the figure was 0.0625 E-score. In the case of CGCAGTGA, the binding signal was -0.114 E-score.

For the sequence GTCGGTGA, the binding signal worked out at 0.0757 E-score. In the case of CCATATCC it was -0.0492 E-score.

With AGTGCGGC, the binding signal is -0.143 E-score.

With CGGACGAG, the binding signal is -0.148 E-score.

Consider AACCCACT, for which the binding signal is 0.133 E-score.

On to ACTCGCCT, for which the binding signal is -0.071 E-score.

Consider GATGGAGA, for which the binding signal is -0.0397 E-score. In the case of CGAGCGAG it was -0.0875 E-score. Regarding TCTTGAAA, the binding signal is -0.147 E-score. In the case of GACAAAGC, the binding signal was -0.129 E-score. In the case of CACTCAAG it was 0.264 E-score. In the case of GACCACGA it was -0.219 E-score. On to GGCTCAAC, for which the binding signal was -0.09 E-score. With ACCGTAAA the figure was 0.0506 E-score; with GCGAGGGA, 7e-05 E-score; with AAGCCGGA, 0.0116 E-score.

Turning to ACTCAGGA, the binding signal was -0.0406 E-score.

With TAAACCAA, the binding signal is -0.0514 E-score. With ACACCATG the figure was 0.47 E-score. With ATGTGATC the figure was -0.167 E-score; with CCGGACCC, 0.11 E-score. On to GCAACGGC, for which the binding signal was determined as 0.00356 E-score. Turning to CCAGCAGG, the binding signal is -0.194 E-score. In the case of CGACACCC it was 0.488 E-score. With AACCAACC the figure was -0.109 E-score. With AAAACCAC the figure was -0.0815 E-score. With ACCCCCCT, the binding signal was 0.302 E-score. In the case of GTTACATA it was 0.0461 E-score; in that of AAAGATAT, -0.058 E-score. For the sequence ACACGGCC, the binding signal came to 0.382 E-score. In the case of CAGGAGTA it was 0.125 E-score. With ACTTTAGC the figure was -0.23 E-score; with GAGGGTCA, 0.0574 E-score; with ACCGCGAC, 0.075 E-score. With CCCTTCCG, the binding signal is -0.0208 E-score.

For the sequence GAATGACA, the binding signal was determined as 0.163 E-score. With CTTCACCA the figure was -0.108 E-score; with CCATCCCA, 0.0203 E-score; with GCTCCGAC, 0.0832 E-score.

CACGATAG: the binding signal was found to be 0.102 E-score.

As to GGAGACAA, the binding signal is -0.015 E-score. Regarding AAACACTT, the binding signal was found to be 0.252 E-score. With CCAACACG the figure was 0.377 E-score; with GGGTGAAA, 0.104 E-score. With GGTTACAC the figure was 0.454 E-score. With ACGACTTG, the binding signal was 0.0231 E-score. Turning to ACCCTCCA, the binding signal worked out at 0.175 E-score. As for CCTTTTAG, the binding signal was -0.176 E-score. With CCGTCTCG the figure was -0.0499 E-score; with AACGCTTG, -0.13 E-score; with ACTTAGCA, -0.11 E-score. For AGGGAACA, the binding signal came out at 0.017 E-score. With CCTGCAGG the figure was -0.0104 E-score; with ATCTACGC, -0.0231 E-score; with CAAATTTG, -0.202 E-score.

As to GGCGCGAA, the binding signal is -0.0172 E-score. In the case of CCGACTGC it was -0.116 E-score; in that of CGCTGTTC, -0.105 E-score; in that of GGACCTGA, -0.0389 E-score. For GGGGATAA, the binding signal is 0.00662 E-score.

For CGCTCAAC, the binding signal is -0.108 E-score. For the sequence ACTCAACC, the binding signal was found to be 0.014 E-score. As to ACCAATAA, the binding signal is -0.083 E-score.

Consider CCCCGCCA, for which the binding signal turned out to be 0.148 E-score. For TCTCGTCA, the binding signal was -0.217 E-score. With ACCATAGC the figure was 0.0649 E-score; with CGCTGGAC, -0.0295 E-score. As for GGATGTTA, the binding signal turned out to be 0.105 E-score. Regarding CACGAGAC, the binding signal was 0.154 E-score. For the sequence CCAAACCG, the binding signal came out at 0.0512 E-score.

In the case of GTATATAA, the binding signal amounted to 0.0108 E-score.

On to CGCAACAG, for which the binding signal was -0.208 E-score. With AACCAATC the figure was -0.0628 E-score; with CAAGGGCC, -0.0742 E-score; with AGGTCAGA, -0.158 E-score. With ACGCACCG the figure was 0.177 E-score; with AAGGGTAG, 0.0837 E-score. Take CCCACGGC: the binding signal is 0.0525 E-score. For the sequence GAATTAAA, the binding signal is -0.203 E-score. With CGACCATA the figure was -0.0754 E-score; with CAAGTCCG, -0.117 E-score.

As to TAGCCCTA, the binding signal was -0.117 E-score. With GAAAAAAC the figure was -0.235 E-score. With GCCAACGA, the binding signal is -0.223 E-score. For the sequence GAAGTGGA, the binding signal is 0.183 E-score.

For the sequence AAATTAGA, the binding signal is -0.291 E-score.

AGGGCATA: the binding signal was -0.168 E-score.

Take AAAACGTC: the binding signal was -0.258 E-score. With ATATGGCG, the binding signal was -0.021 E-score.

Take CTTAGTTA: the binding signal was found to be 0.0484 E-score.
